In the supplement of paper PMC10126150:
Values marked as one replicate rest on one cluster of the flow cell; about a third of the high ones do not repeat.

Test system: ATP
Assay: switch fluorescence ratio, 500 uM ATP over buffer (Cy3 cluster intensity, sum of 5 cycles each) (fold (ratio)); higher = stronger signal-on switching upon ATP binding; sequences stand for … in TCGTCGGCAGCGTCAGATGTGTATAAGAGACAGTTTTTTTTTTTTTTTTTTTTTTTTT…TC
Conditions: aptamer strand: ATP DNA aptamer (quencher-CACCTGGGGGAGTATTGCGGAGGAAGG + anchor), 100 nM annealed; ATP concentration: 500 uM; one replicate
In short: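 Cy3-labelled switching-strand clusters on a modified Illumina MiSeq flow-cell were annealed to 100 nM quencher-labelled ATP aptamer and imaged first in selection buffer, then after 15 min with 500 uM ATP at 22 °C. NaOH stripping and re-annealing separated each of five buffer/ATP cycles, and clusters outside 100-1000 RFU were excluded. The fluorescence ratio sums target-cycle Cy3 intensity over buffer-cycle Cy3 intensity per cluster and averages it per switch-domain sequence.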
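Also: ATP exposure 15 min at 22 °C before imaging.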

Sequence	switch fluorescence ratio
GAGCATGCGT	0.989
TACGTCAAC	1.32
CCATTTAGGG	1.02
AACCGTAATC	2.78
AGCGGAGG	0.994
TTATCTGGA	1.05
TCAATAAGCC	1.02
CAACTTGCTA	1.01
CACGAGGTAG	1.02
CGCATTAAGA	1.12
CGTGGCTGGG	0.978
GTGTTTCGAC	0.999
TCTGTGCCGA	0.986
GAAGCTGGGA	0.969
CCTGGTGGGT	1.06
CGGGATCAGA	1.01
TTCCACTTCA	1.12
CGTTTGTGCT	0.977
TAGAATCTCA	0.968
GCAAGGGAGG	0.995
CGTTCAGAGT	1.01
GCTTAATA	1.05
ATTAATCCCA	1.03
TTCCGCCATA	1.87
TGTTGCTTAG	1.04
AAGGCATCTC	1.01

Sequence	switch fluorescence ratio
AGAGCCCCTT	0.996
CGGGATAGTT	0.974
GGACCTGTAG	0.981
ACAAGTGGAA	1.01
GAGTTCTCCT	0.997
ACTGCAGCTT	1.06
GGCGACACTC	1.12
CGAGGCTACC	1.22
GTGATCTGG	0.987
AGAAAACTGA	1.04
GTCGGAGAAG	0.983
CCTGATTGGT	0.953
ACGGACAGCC	1.22
GCAAATGTCT	1.01
AATTCACCTC	1.05
TCCATCTTGT	0.952
TTTAGAGGAG	1.04
CTCGGGTCT	1.01
CGGCTAGCGG	1.01
TAAGGCGCAG	0.973
AATTGAAATG	1.04
TGGCTCTGCG	1.02
TTGTGTGGAA	1.03
TAAAAACAAG	1.02
AAGAGTCGTT	1.06
CGGTCTTGCA	0.993

Sequence	switch fluorescence ratio
GGGGTCAGAG	0.964
ATGCAACCGT	1.04
AGTAACGGGA	1.01
AGTGGGAAGT	0.998
AATCCTAGC	1.03
CCGGTTCGGA	1.03
TTGCCCACAC	1.03
CACGGACTGA	1.44
GACAAACCGT	1.15
TATGTCGCAA	1.85
AAGTAGGATC	0.948
AATCACTATT	1.02
TACATTCTTG	1.01
CGTGATATCG	1
GGCGTTAAAA	0.966
TAAATTTGAT	0.99
CTCAGGGCCT	1.02
TTTTGGAGT	1.01
GATCACAGTT	0.985
ATCCAGTAGG	1.03
TCTTTCCATT	0.99
TTCCACAGCG	1.04
GGTTAGTCAG	0.978
CCTTCCTAAC	4.49
ACTAAGACCA	1.06
GTGGGCTAGA	0.983

Sequence	switch fluorescence ratio
GAAGGTAGTC	0.947
AACGTGGTGT	1.03
TGTAGAACTA	1.02
GCATACCTCA	1.13
TCCACCGTAA	4.09
TCCATAGAG	0.996
GATGAAACGC	0.999
TATTCAACCT	1.74
AAGGGTGAAA	0.973
TATTCCGCGG	1.15
GGGTAATAGG	0.986
CATTATTGAG	1.02
ACGCTTGAGA	1.02
TTCTGCCCTC	1.05
CGTGGTAGCA	0.965
TTACATTCTC	1.05
TTGATGCATG	1.02
AGACGTCCCC	1.07
CTAGTTTACT	1.04
TGTTTAATGA	1.03
AATTGTTAG	0.99
ATCTGTCACG	1.05
GTCATCGCCT	0.991
TGTTTTCTCT	0.991
AGTGATACTT	1.04
AAGTCGAAAG	0.996

Sequence	switch fluorescence ratio
ACGGGTCTTG	1.03
TGATTTAAAT	1.04
CGGGAAACGC	1.03
AAGATCCCTC	1
CGTGACAGGA	0.973
GGTAGCCAGC	1.03
CTTTAGATAT	0.963
GGGTCCAGAA	0.989
ACGGCCATGG	0.926
GCTTGGCGAT	1.07
AAATGTGGCC	1.02
ACCGCACACT	2.38
GGTCGAGAGT	0.98
CAGTTGCTCT	1.02
GACGGGGGTC	1.02
GGGAGTTCGC	0.955
GCATTTTATG	1.03
CGGGTGTTTG	0.963
GAAAAACCGG	0.975
AATCCTAATA	1.04
AATGCTCAGA	1.02
ACATTGAGAA	0.991
GCGCCCCCCT	0.987
CTTCAAGGCA	1.05
GTTAGTGTTA	1.04
AAATCTCCTG	1.05

Sequence	switch fluorescence ratio
TTAGGGACGA	1.05
GATTTTGAGA	0.939
AGGTCACACA	1.03
GGGCCCATAC	1.01
ACTCGGTAGG	0.973
TTAGTTTCGA	0.944
TTAGTACCCC	1.1
GCTCATACGT	1.06
AATTTTCATA	1.01
GCTCCTCTT	1.03
ATAAAAGAGT	1.03
AGAGGTTGAT	0.969
CGGCCCGTTA	1.04
TCTAACAGCA	1.03
CAAAGTACT	1.12
ATTGGATCCA	1
GGTCACCCTT	1
AAATCGCAAC	1.99
GGCTGTAGTC	1.02
AGGCGGTGCT	0.965
AGGGCCAGTT	1.01
AGCTGTCAGC	1.04
CTGCTCCGCG	2.78
TGCCAGGCGC	1.07
TATACCAGGT	1.28
GTGTTCCCAC	0.97

Sequence	switch fluorescence ratio
ATGCATGG	1.02
CTGGTACTTG	1.03
TTTGGATCAC	1.01
AAAGAGAGA	1.02
GGCGTATCAA	1.01
GAGGGATGTC	0.928
TAAACATCAT	0.996
TCGCAGCGTT	1.2
TATAAAAACC	1.03
GATCAAACAG	0.973
AAATTTCG	0.986
CAGATGTAAG	0.977
CGAAATTAGG	1.02
TACGTCTAGC	1.04
GGAGGCTGAA	0.959
ATTCGTAGAT	0.932
CAAATAGTTG	0.979
TTAGGAGTAT	1.01
TTCACTTGCA	0.966
TAGTCTACCC	1.04
TGTCCGGAGT	1.11
AAGACCATCA	1.01
CCGTGAAAAT	0.992
AATTGGCCTC	1.03
GGACCCTAAT	0.996
GGCAGACCGA	1.04

Sequence	switch fluorescence ratio
CGGGTCTTCA	0.986
TATCCCACAG	1.53
GTTGCGAGCC	1.05
GACCCTTATA	1.07
GTCGAGCCTT	1
GTGTGGCCGG	1.01
ATCAAGAATA	1.05
CGAGATGGGG	0.96
TTGGTGATA	0.984
GATGGAAGCT	1.12
AGTATCTTA	1.02
CATTGAGTCT	0.999
TTTGTGGAGA	1.05
CTTGCGAGTA	0.996
TCGAGACATT	0.956
TAGATACGTC	0.974
GACGATCTAT	0.994
GTGTCCTAGG	0.966
CTGGCCTTGT	1.02
